Test results as given in article PMC12136788.
This is one part of the list.

T1: UNK ZnF1-3 (human, UniProt Q9C0B0 31-174)
T1 sequence: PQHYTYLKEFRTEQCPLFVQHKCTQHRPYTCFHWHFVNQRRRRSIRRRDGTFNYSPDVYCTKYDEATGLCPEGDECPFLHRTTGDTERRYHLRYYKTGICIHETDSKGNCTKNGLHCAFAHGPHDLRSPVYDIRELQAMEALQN

B1: 104573229_104573349_1377_3pUTR_ENSG00000166272_ENST00000448841|human|control|control (ssRNA)
RNA: GGGAGUUCUACAGUCCGACGAUCGAGAUGGAGUUAGGGUAUGAGGAAUGAGUCACAGAACCAACUUAGCCCUCCACAACACUGUGCCCUUGUGGAGGAAGAGGCAUCCACACCCCGAACUGUACCUGGAGAUGGAGGAAAAUGCAACAGAGGAUUGAGCAUCA
B2: 94799348_94799709_406_CDS_ENSMUSG00000001506_ENSMUST00000001547|mouse|control|control (ssRNA)
RNA: GGGAGUUCUACAGUCCGACGAUCAGGGUCUCCCUUGGGUCCCUCGACUCCUACAUCUUCUGAGUUUGGUGAUACGUAUUCUUCCGGGCAGAAAGCACAGCACUCGCCCUCCCGUCUUUGGGGGUUGGGACAGUCCAGUUCUUCCAACAGAGGAUUGAGCAUCA
B3: chr7:141450121:141450122:+_ENSG00000106028_ENST00000265304|hu_mus|hu_hu_hu_mus_True|1_108 (ssRNA)
RNA: GGGAGUUCUACAGUCCGACGAUCUCAUCCUUUCUACGCCUUUUCUUUUGUCUGGUCACUCAGAAAUAUAAUGUUAUCAGCUAUGAUUGUUGUUGCUUGCCGCCUCACAUUGUUUUUAUCCAUGUACUCGCCAUAGUCUAUUUUCAACAGAGGAUUGAGCAUCA
B4: chr15:96202663:96202664:+_ENSMUSG00000033237_ENSMUST00000096250|mus_hu|FALSE|FALSE (ssRNA)
RNA: GGGAGUUCUACAGUCCGACGAUCUAUACUGCUCACAGAUGAACCACCCAAAGUUAAUACAGGUCCAUUAGAAAUUCUUUCUAGUUGAUCACCUUUGGCAGUAUCUUGCUGAGUGAUAUCUAAAGUCCCUUGUGGUUCCAUUGGCAACAGAGGAUUGAGCAUCA
B5: chr14:57341393:57341394:-_ENSMUSG00000021938_ENSMUST00000022507|mus_mus|motif|central (ssRNA)
RNA: GGGAGUUCUACAGUCCGACGAUCUAUGAAUAGUGAGACUCUAUAUGAAAUGUAAGCAACAACUCUAACUUACACAGGAUCGGUGGUUUAUACAAUCUUAACCCCCAUGCCUCCCACCCACUAGUAUACUACAGUAUGUGUCCCCAACAGAGGAUUGAGCAUCA
B6: chr8:25296883:25296884:-_ENSG00000104756_ENST00000221200|hu_hu|motif|central (ssRNA)
RNA: GGGAGUUCUACAGUCCGACGAUCGUAGUUCAAAAUGGGUUCGAAGUACUCAGGACUUCGGUCAAUUAAGAAAGCUCCUCGGUGAUCUUGCUUAUUUCCCCAGACACCUUUGUCCUUAAACAUGUGGGCCAGCAUACUGUCAGGCAACAGAGGAUUGAGCAUCA
B7: 117006022_117006142_4083_3pUTR_ENSMUSG00000027351_ENSMUST00000028829|mouse|control|control (ssRNA)
RNA: GGGAGUUCUACAGUCCGACGAUCGGAUUAAACUGUCCAUCUAAUUCACAAAGAGACUCAUUAACAUUAUAUCAUCAGUUUCUUUUCUGGACUGGCUUGAAUUCAUGUGUGCUAAUUACAAAAAUCCAAGGUUAAAAAAAAAACCAACAGAGGAUUGAGCAUCA
B8: chr9:95013113:95013114:-_ENSG00000196305_ENST00000443024|hu_hu|hu_hu_hu_mus_False|18_98 (ssRNA)
RNA: GGGAGUUCUACAGUCCGACGAUCCUCAGUCAGAAAGGGUGUGUAGGGGGCCAUCAGUCUGCACAGAGAAAGCAGGACACUGAACAGUGUCUCCAGAGCCAUGACACAGUCUUCCACCCCAUUUUCACCCUUUAACCUCCUCCUCAACAGAGGAUUGAGCAUCA
B9: 52133985_52137179_1883_CDS_ENSG00000112118_ENST00000229854|human|control|control (ssRNA)
RNA: GGGAGUUCUACAGUCCGACGAUCAAUCAGAGUUUCCAGUGUUCGGGCUGUAACUGGAGAUGUCCUGGCGGUGUCUGAGCUCAUGCUAUCCUGGCUGCGCAGGCGUGAAUACUCUUCUGCAAUGUAGGUGGCCGACUCCUGUGUCAACAGAGGAUUGAGCAUCA
B10: chr22:19452774:19452775:-_ENSG00000070010_ENST00000399523|hu_hu|hu_hu_hu_mus_False|38_88 (ssRNA)
RNA: GGGAGUUCUACAGUCCGACGAUCCUUCUCAUUGUAGUUGAUAGCAAUCACAUCCCCAGUCGUCAGACAGGCGAAGUUUCUCAAUGCAUUUUCUAAUACGGCUUUGGGGUUGGUAAUAUCCAGGAAGUCUGGGCUCUGAGGCUGCAACAGAGGAUUGAGCAUCA
B11: 94228602_94229594_564_CDS_ENSMUSG00000041912_ENSMUST00000166032|mouse|control|control (ssRNA)
RNA: GGGAGUUCUACAGUCCGACGAUCUGAGAUUUUUAUAAGUCGUGAGAGUAGUAACGUUCCCUCUGAUUCUUUGUCGCAAGUGAUUUUGGCUCCAGAAGCCUUACAGAUAGAACGAAUCGUCUCACCGCCUCUCCCUAUGAUUCUCAACAGAGGAUUGAGCAUCA
B12: chr1:171882756:171882757:-_ENSMUSG00000026675_ENSMUST00000027989|mus_mus|FALSE|FALSE (ssRNA)
RNA: GGGAGUUCUACAGUCCGACGAUCGAGGAAAAACAAGAAGUAGAAGUCCUACCCAGUGGCAUUGCCCCUCCGUGCUGAGACUAAAAGAAGCUUCAGGCUGUACUGUGUCCCCAUCACACAAGUCAAAACUACUGGGCUCUAGGACAACAGAGGAUUGAGCAUCA
B13: chr3:129744051:129744052:-_ENSMUSG00000001052_ENSMUST00000001079|mus_hu|FALSE|FALSE (ssRNA)
RNA: GGGAGUUCUACAGUCCGACGAUCGCUGGCAGAGUACAUGGCUGGACUAUUGUAGUGAUUCACAAAAGAGGAGUAUGGUUGGGAGGCACUCGUAUGCAAAUGGGAUGCUGACGAUGCAGCACCUUGGAAAGAUCCUAGAGUGGACAACAGAGGAUUGAGCAUCA
B14: 69662632_69662752_1122_3pUTR_ENSMUSG00000042155_ENSMUST00000053087|mouse|control|control (ssRNA)
RNA: GGGAGUUCUACAGUCCGACGAUCGCUCCCUGAAUCCAAACAUUUGUCAAAGGGUCCCAUAUGUGGACCUCUGAUAAAGGAUGCCAGUAGUAGCCUCCAAUGAUAUACAUGGUGGCUGUGGACCUCUGGGAAAUCUCUUUAUGCCAACAGAGGAUUGAGCAUCA

These binders were tested against T1, UNK ZnF1-3 (assay: nsRBNS (natural sequence RNA bind-n-seq); RBNS binding buffer (assumed for nsRBNS): 25 mM Tris pH 7.5, 150 mM KCl, 3 mM MgCl2, 0.01% Triton X-100, 500 ug/ml BSA, 20 U/ml SUPERase-In, 4 C; UNK is unkempt and MSI1 is Musashi-1; names of the RNAs are library labels; protein concentration not given here; high values mean tight binding).

| Binder | binding signal |
| --- | --- |
| B1 | 2.15 enrichment R |
| B2 | 0.893 enrichment R |
| B3 | 0.4 enrichment R |
| B4 | 0.372 enrichment R |
| B5 | 1.11 enrichment R |
| B6 | 1.1 enrichment R |
| B7 | 1.08 enrichment R |
| B8 | 1.1 enrichment R |
| B9 | 0.738 enrichment R |
| B10 | 0.911 enrichment R |
| B11 | 0.614 enrichment R |
| B12 | 0.945 enrichment R |
| B13 | 1.31 enrichment R |
| B14 | 0.871 enrichment R |
